# Experimental data from article PMC6451091.
# The list shows a part of the results. For part of these data: At the low end of the ranking the order means little. For part of these data: Measured with an extract: partners may take part in the binding.
# How the values were obtained:
# Conditions in all cases: 20 mM HEPES pH 7.9, 100 mM NaCl, 1 mM DTT, 0.2 mg/mL BSA, 0.02% Triton X-100, 2% milk, 0.4 mg/mL salmon testes DNA; 1 h; temperature not stated; high values mean tight binding; double strand, one strand shown; sequences stand for … in GCCTAGCAC…GTGCTAGGTCTTGATTCGCTTGACGCTGCTG
# [1] = target: PU.1 (IVT) (UniProt P17947); assay: protein-binding microarray (PBM)
# [2] = target: PU.1 (endogenous, THP-1 nuclear extract) (UniProt P17947); assay: nuclear extract protein-binding microarray (nextPBM)
# [3] = target: T1, FLI1 (endogenous, THP-1 nuclear extract) (UniProt Q01543); assay: as above
# T1 sequence: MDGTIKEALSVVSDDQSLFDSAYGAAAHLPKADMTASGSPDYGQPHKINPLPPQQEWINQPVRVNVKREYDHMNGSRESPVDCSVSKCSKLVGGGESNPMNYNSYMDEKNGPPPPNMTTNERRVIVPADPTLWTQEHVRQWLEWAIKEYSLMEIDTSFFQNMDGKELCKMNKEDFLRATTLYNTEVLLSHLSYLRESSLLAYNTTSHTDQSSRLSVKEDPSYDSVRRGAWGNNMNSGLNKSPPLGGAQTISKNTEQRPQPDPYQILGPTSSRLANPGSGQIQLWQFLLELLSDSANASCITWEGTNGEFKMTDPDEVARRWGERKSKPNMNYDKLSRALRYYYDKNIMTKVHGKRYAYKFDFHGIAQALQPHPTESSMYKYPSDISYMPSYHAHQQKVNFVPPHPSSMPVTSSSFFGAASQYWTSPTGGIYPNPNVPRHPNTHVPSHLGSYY
Sequence,binding signal [1],binding signal [2],binding signal [3]
CGAAAGGGGAAGTGCTAATC,7.39 z-score,7.28 z-score,4.04 z-score
AAAAAGAGGAAGTGACTCAC,8.49 z-score,7.25 z-score,4.2 z-score
AAAAACAGGAAGTGAGAATC,8.18 z-score,7.27 z-score,5.49 z-score
ACCTCTGGGAACTACTGTGG,0.297 z-score,0.358 z-score,-0.443 z-score
ACTTAAAGGAAGTGGGAAAA,2.63 z-score,2.31 z-score,2.15 z-score
GAATACAGGAAGTCCCATAG,4.5 z-score,5.34 z-score,4.05 z-score
AAAAAGAGGAACAGTTTAAG,5.75 z-score,5.66 z-score,1.63 z-score
TAGAAGAGGAAGTGTGCGTG,5.71 z-score,6.43 z-score,3.13 z-score
AAAAAGGAGAAGTCACTGTG,5.48 z-score,6.1 z-score,1.86 z-score
AGAAAGGGGAACAGAGAGAG,3.3 z-score,3.53 z-score,0.661 z-score
CAAAAAGGGAAGTGGGTGCT,7.29 z-score,6.78 z-score,3.14 z-score
GCAAAGGGGAAGTGGTTAAA,6.15 z-score,6.55 z-score,2.93 z-score
CAGAAAAGGAACTGGGTATG,1.98 z-score,1.58 z-score,0.972 z-score
TGAAAGGGGAAGTGAGCTGC,6.48 z-score,6.78 z-score,3 z-score
TGAAAGAGGATGTGCAACCA,1.97 z-score,2.42 z-score,1.72 z-score
CAAATGAGGAAATGGAACAG,4.08 z-score,4.73 z-score,2.09 z-score
AAAAAGAGGAAGTGCTTTTC,8.49 z-score,7.47 z-score,4.56 z-score
CAAAAGAGGAACTCAGGACT,6.31 z-score,6.69 z-score,2.19 z-score
CTATTCAGGAAGTGGCAATT,2.71 z-score,2.84 z-score,3.78 z-score
AAAAGCAGGAAGTGCCACGT,4.73 z-score,5.82 z-score,3.88 z-score
AGGCAGAGGAAGTGGCCTGA,2.98 z-score,2.94 z-score,2.1 z-score
TTAAAGAGGAAGAGCATCTT,3.21 z-score,3.31 z-score,1.51 z-score
CCAAAGAGGAAGTGAATATG,6.98 z-score,6.82 z-score,3.78 z-score
GAAAAGAGGAAGTCACATTA,8.62 z-score,7.56 z-score,4.74 z-score

Sequence,binding signal [1],binding signal [2],binding signal [3]
AAAAAAAGGAAGTGCTTCAA,7.35 z-score,7.04 z-score,3.47 z-score
AAAAAAGGGAACTGGCTAGA,5.22 z-score,5.79 z-score,1.56 z-score
GAGGTGGGGAAGTGCAACAT,2.93 z-score,2.7 z-score,1.3 z-score
TGTGAAAGGAAGTCTCTGGG,1.39 z-score,1.43 z-score,1.95 z-score
GAAAAGGGGAAGTGTGTGTT,7.89 z-score,7.42 z-score,3.36 z-score
TAAAAGAGGAAGTAGGAATA,8.36 z-score,7.26 z-score,4.1 z-score
CGTAAGGGGAAGTGCTAAAC,5.17 z-score,5.55 z-score,2.33 z-score
GCTAAGAGGAAGTCAGGGAG,4.24 z-score,5.12 z-score,2.72 z-score
AGACAGGGGAAGTGGAGGCC,3.21 z-score,2.92 z-score,1.63 z-score
CAAAAGGGGAAGTCAAAGAA,6.73 z-score,6.89 z-score,3.22 z-score
AAAAAGAGGAACTGGCTAGA,7.31 z-score,7.1 z-score,2.76 z-score
AGGAAGGGGAAGTGCCGGGC,4.95 z-score,6.2 z-score,2.8 z-score
AGAATGAGGAAGTCATCACA,7.57 z-score,7.22 z-score,3.79 z-score
GGAATGAGGAAGTGGTCATG,7.26 z-score,6.96 z-score,3.41 z-score
AAAAAGAGGAAGAGAGAAAA,5.63 z-score,6.25 z-score,2.14 z-score
AGTTTGAGGAAGTGTTGCAA,6.25 z-score,6.23 z-score,2.6 z-score
AAAAAGAGGAAGTAGAGAAC,8.97 z-score,7.28 z-score,4.55 z-score
AGGAAGAGGAAGTGACAGAT,6.27 z-score,6.54 z-score,3.78 z-score
ACCAAAAGGAACTGTGCCCC,0.337 z-score,0.85 z-score,0.424 z-score
AATAAGGGGAAGTCGTGTCT,5.43 z-score,6.08 z-score,2.43 z-score
TTAATCAGGAACTGTACAAT,1.47 z-score,1.46 z-score,1.14 z-score
GAAAGGGGGAAGTGACTAAG,5.51 z-score,5.96 z-score,2.5 z-score
AGAGAGAGGAAGTGAGCTCT,4.31 z-score,5.05 z-score,3 z-score
AGAAAGGGGAAGTACGGCAA,7.67 z-score,7.06 z-score,3.5 z-score

Sequence,binding signal [1],binding signal [2],binding signal [3]
TGAAAGAGGAAGTCCAACCA,6.97 z-score,6.92 z-score,3.72 z-score
GAAAAGAGGAAATGGGGAGT,5.14 z-score,5.72 z-score,3.06 z-score
CACATGAGGAACTGATGCGG,2.94 z-score,2.72 z-score,0.808 z-score
AGGGTGGGGAAGTGAAGCCG,2.78 z-score,2.65 z-score,1.62 z-score
AGAAAACGGAAGTGAGGTAC,6.67 z-score,6.89 z-score,5.26 z-score
AAAAAGAGGAAGTCAAATTG,8.3 z-score,7.46 z-score,4.01 z-score
TCAAAGAGGAAGTGTGTCTA,6.18 z-score,6.6 z-score,3.44 z-score
ACTTTGAGGAAGTGCAAAAT,5.76 z-score,5.96 z-score,2.73 z-score
GGAAGGAGGAAGTGAGGGGC,5.54 z-score,6.11 z-score,2.99 z-score
GAAAAAGGGAAGTGGATGCT,7.27 z-score,6.99 z-score,3.43 z-score
TTTTAGAGGAACTGAAAAAC,3.06 z-score,3.04 z-score,1.01 z-score
CTGCAAAGGAAGTCTGGGCC,0.767 z-score,0.872 z-score,1.76 z-score
CAAAAGAGGAAGAGAATCAG,5 z-score,5.6 z-score,1.9 z-score
CTTGTGAGGAAGTCAGAGCT,2.77 z-score,2.78 z-score,1.67 z-score
GAAAAGAGGAAGTCAAATTA,8.43 z-score,7.63 z-score,3.87 z-score
TAAATGAGGAAGTGCTCAAG,7.81 z-score,7.45 z-score,3.65 z-score
CTTATGGGGAAGTGGGAGGT,4.56 z-score,4.96 z-score,2.05 z-score
GAAAAGAGGAAGTGTGTTCT,8.27 z-score,7.41 z-score,3.84 z-score
GATAACAGGAAGTCCCATAG,4.86 z-score,5.56 z-score,4.08 z-score
AGAAAGAGGAACTCTGTCTC,6.01 z-score,6.68 z-score,2.29 z-score
AGAAAAGGGAAGTGAGTTAC,7.29 z-score,6.95 z-score,3.01 z-score
TTGGGGAGGAAGTGAGTGCC,3.42 z-score,3.24 z-score,2.94 z-score
TTAAGGAGGAAGTTTTGCAA,4.58 z-score,3.34 z-score,2.24 z-score
AGAAAGAGGAAGTTATGTGC,8.58 z-score,7.55 z-score,4.05 z-score

Sequence,binding signal [1],binding signal [2],binding signal [3]
AAGTAGAGGAACTGTTAGCC,1.95 z-score,1.62 z-score,0.786 z-score
CAATTGAGGAACTGAATTTT,5.21 z-score,5.65 z-score,1.36 z-score
CTCAGGAGGAAGTGGAGGCA,3.62 z-score,3.75 z-score,2.51 z-score
GGAAAGAGGAAGTGCAGTCC,8.02 z-score,7.27 z-score,4.42 z-score
CAGAAGAGGAAGTGTGAAAA,6.05 z-score,6.45 z-score,3.04 z-score
GAAAAAAGGAAGTGGGCAGC,5.86 z-score,6.34 z-score,3.02 z-score
AAAAAGGGGAAGTGATGGCG,8.22 z-score,7.35 z-score,3.52 z-score
AAATACAGGAAGTCCAACAT,5.21 z-score,5.97 z-score,3.93 z-score
TGAAAGAGGAACTCTCACAT,4.89 z-score,5.6 z-score,1.47 z-score
GAAAACAGGAAGTGGGGAGG,6.96 z-score,6.89 z-score,4.98 z-score
ACGCAGGGGAAGTGGCTCCC,2.95 z-score,3.03 z-score,1.88 z-score
GAGAAGAGGAACTAGGTCAA,4.64 z-score,5.1 z-score,1.27 z-score
AAAAAAAGGAACTAGCTAGA,5.63 z-score,5.32 z-score,1.85 z-score
TTAAAGAGGAACTGCACGCC,4.21 z-score,4.9 z-score,1.43 z-score
CGAAAGCGGAAGTGCTAAAC,7.81 z-score,7.45 z-score,5.56 z-score
GAAAACAGGAAGTGCTTTCA,8.31 z-score,7.19 z-score,5.39 z-score
AAAAAGGGGAAGTCAATTTT,8.55 z-score,7.53 z-score,3.57 z-score
TGAAGAAGGAAGTGAAATTA,4.07 z-score,4.1 z-score,2.43 z-score
AGAAAGAGGAAATGGGTTTA,5.62 z-score,5.89 z-score,3.19 z-score
AAAAAGGGGAAGTCATCTAT,8.05 z-score,7.41 z-score,4.07 z-score
GAAAACAGGATGTCCCATAG,1.76 z-score,2.31 z-score,2.29 z-score
TGAAAGAGGTAGTGCAACCA,1.11 z-score,1.74 z-score,-0.181 z-score
AAAATGAGGAAGTGCTTCTA,8.37 z-score,7.64 z-score,3.92 z-score
CAAATGAGGAACTTATGCGG,6.39 z-score,6.57 z-score,2.31 z-score

Sequence,binding signal [1],binding signal [2],binding signal [3]
AAAAAAGAGAAGTGGGGGAA,5.77 z-score,6.11 z-score,2.64 z-score
CAAAAGGGGAAGTGGATGCT,7.79 z-score,7.18 z-score,3.6 z-score
GAGAAGAGGAAGTGCCTTTC,6.91 z-score,6.54 z-score,3.64 z-score
GAAAACAGGAAGTCAAATTT,7.67 z-score,7.29 z-score,4.92 z-score
ACTAAAGGGAAGTGAACCTT,3.84 z-score,4.18 z-score,2.37 z-score
AGAGAGGGGAAGTGACTTGC,4.95 z-score,4.75 z-score,2.64 z-score
GAGAAGGGGAAGTGGAAGCA,5.1 z-score,6.02 z-score,2.52 z-score
TTTTAAGGGAAGTGGTCTTT,3.96 z-score,3.98 z-score,1.78 z-score
CGAAAGGGGAGGTGCTAAAC,-0.362 z-score,-0.48 z-score,-0.322 z-score
AGAAGCAGGAAGTGGTAAGT,4.6 z-score,4.22 z-score,4.42 z-score
GGATAAAGGAAGTCAGGAAG,2.32 z-score,2.68 z-score,2.61 z-score
ATAAAAAGGAAGTGAGATTT,5.24 z-score,4.64 z-score,2.9 z-score
AAAAAAAGGAAATGGCTAGA,3.02 z-score,2.51 z-score,2.01 z-score
ATGTGGAGGAAGTGTTTAGT,3.13 z-score,2.68 z-score,2.09 z-score
GCCTTGGGGAAGTGCCAGTT,2.92 z-score,2.97 z-score,1.33 z-score
ACAATAAGGAAGTGATACTA,4.77 z-score,5.7 z-score,2.65 z-score
GTAAAGAGGAAGTGGAAGAA,6.97 z-score,6.8 z-score,3.81 z-score
AAAAAAAGGAACTGGGTAGA,4.33 z-score,4.14 z-score,1.1 z-score
TCTAAAAGGAAGTCAGCTAT,1.76 z-score,1.98 z-score,1.9 z-score
TGGGGGAGGAAGTGAGAGAC,3.27 z-score,2.96 z-score,2.74 z-score
ACAAAAAGGAACTGTGGCCC,1.57 z-score,1.54 z-score,0.85 z-score
TGGGAAAGGAAGTGAATCTG,2.42 z-score,2.48 z-score,2.69 z-score
GATAAGAGGAAGTCTTCTGT,5.71 z-score,6.29 z-score,3.12 z-score
AATAAGAGGAAGTCAAAATA,6.65 z-score,6.54 z-score,3.33 z-score
